Assay results taken from PubChem BioAssay AID445 (National Center for Advancing Translational Sciences (NCATS), 2006).
The campaign covered roughly 110,000 compounds. About 40 (0.04%) were called active. The shares of active, inactive and inconclusive entries below differ from those in the screen. Calls come from the whole dose curve; as a rule, active = well fitted curve in the direction sought with a large enough effect in the signal ratio (not every such curve was filed as active); inconclusive = small, poorly fitted or top-dose-only effect, or a change in a side signal; inactive = flat fitted curve, though single readings scatter; the % refers to the signal ratio. Potencies beside an inconclusive call are fits to weak or partial responses and may not hold up.

Experiment: IkB Signaling;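 for IkBa stabilization activation: 0% = basal untreated cells and 100% = reference inhibitor full response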
Conditions: ABC-DLBCL IkBa-CBG/CBR dual luciferase ratio (green luciferase fused to IkBa over red control in OCI-Ly3 lymphoma cells), 4 h; IkBa stabilization activation: at 57.1 µM (top of the series), scaled: untreated 0%, proteasome inhibitor 100% unless noted
Outline: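 Luminescence ratio of IκBα-fused green versus native red beetle luciferase in OCI-Ly3 cells, 4 h post-doxycycline with compound; red signal alone, scaled from basal (0%) to zero light (-100%), flagged nonspecific or cytotoxic effects.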
Potency is the fitted concentration of half-maximal effect.

| Compound | IkBa stabilization activation | Potency |
| --- | --- | --- |
| CCOC(=O)c1c(NC(=O)OC)sc(C(=O)N(C)C)c1C | inactive: -1.65% |  |
| C=Cc1ccc(Cn2c(C)c(CNCc3cccc(Br)c3)c(C(=O)O)c2C)cc1 | inconclusive: 1.9% [signal inhibitor] |  |
| Cc1cccc(Cn2c(CNS(=O)(=O)c3ccc4c(c3)CCCC4)nc3cccnc32)c1 | inconclusive: -0.837% [signal inhibitor] |  |
| Cc1c(Cl)cccc1-c1ccc(C(=O)Nc2ccc(F)cc2)o1 | inconclusive: 14.1% [signal inhibitor] |  |
| CN(C1=NC(=O)C(CC(=O)Nc2ccc(Br)cc2)S1)c1ccc(O)cc1 (centres undefined) | inconclusive: 8.22% [signal inhibitor] |  |
| CCOc1ccc(-c2cccc(NS(=O)(=O)c3c(C)cc(C)cc3C)c2)nn1 | inconclusive: 4.07% [signal inhibitor] |  |
| COc1ccccc1OCC(=O)NCC(c1ccc(Cl)cc1)N1CCCCC1 (centres undefined) | inconclusive: 1.64% [signal inhibitor] |  |
| CCN(C(=O)C1CCN(S(=O)(=O)c2ccc3c(c2)CCCN3C(C)=O)CC1)c1cccc(C)c1 | inactive: 2.5% |  |
| [O-][n+]1onc2c1CCc1c-2nn(-c2ccccc2Cl)[n+]1[O-] | inconclusive: 4.68% [signal inhibitor] |  |
| Cc1c(Cl)cccc1NC(=O)Cn1c(CCC(=O)O)ccc1-c1cccs1 | inconclusive: 3.14% [signal inhibitor] |  |
| CCOC(=O)c1c(NC(C)=O)c2c3c(sc2n1Cc1nc(-c2cccc(Cl)c2)oc1C)CCCC3 | inconclusive: 0.646% [signal inhibitor] |  |
| Cc1c(-c2ccc(Br)cc2)c(=O)oc2ccc(OC(=O)N3CCOCC3)cc12 | inactive: -2.32% |  |
| CCN(CC)C(=O)CSc1nc(-c2ccccc2F)nc2c1Cc1c(CO)cnc(C)c1O2 | inactive: 2.76% |  |
| CC(C)(C)OC(=O)N1CCC(c2c(C(=O)N3CCCCC3)cnn2-c2ccc(Cl)cc2)CC1 | inconclusive: -0.517% [signal inhibitor] |  |
| N=c1n(CCN2CCOCC2)c2ccccc2n1CC(O)COc1ccccc1 (centres undefined) | inactive: 0.516% |  |
| CC(=O)[C@H]([C@@H](c1ccccc1)N1CCOCC1)N1CCOCC1 | inactive: 0.0416% [at 11.4 µM, scaled: untreated 0%, proteasome inhibitor 100%] |  |
| CCOC(=O)c1cnc2ccc(OC)cc2c1NCCc1ccccc1 | inconclusive: -2.93% [signal inhibitor] |  |
| Cn1c(=O)c2c(nc(NCc3ccccc3)n2Cc2ccccc2)n(C)c1=O | inactive: 6.1% |  |
| Nc1c(C(=O)NC2CCCC2)c2nc3ccccc3nc2n1/N=C/c1cccnc1 | inactive: 5.24% |  |
| CNc1nc(N2CCc3ccccc32)ncc1F | inactive: -7.46% |  |
| CN(c1ncnc2onc(-c3cccc(Cl)c3)c12)C1CCCCC1 | inconclusive: 11.8% [signal inhibitor] |  |
| CCc1ccc(-n2nc3cc(C)c(NC(=O)c4cccc5ccccc45)cc3n2)cc1 | inactive: -3.2% |  |
| CCN=c1scc(-c2ccc3c(c2)NC(=O)CO3)n1N=C1CCCC1 | inconclusive: 2.69% [signal inhibitor] |  |

| Compound | IkBa stabilization activation | Potency |
| --- | --- | --- |
| COc1cc(Cl)c(C)cc1NC(=O)CSc1nnc(-c2ccco2)n1CC(C)C | inconclusive: 4.12% [signal inhibitor] |  |
| CCc1cccc(NC(=O)C2CCN(C(=O)c3cnn(-c4ccccc4)c3-n3cccc3)CC2)c1 | inconclusive: 5.89% [signal inhibitor] |  |
| Nc1nc(Nc2ccccc2F)sc1C(=O)c1ccc(Cl)cc1 |  | inconclusive: 31.6 µM [signal inhibitor] |
| O=c1cc(-c2ccccc2)n2c(SCc3ccccc3)nnc2[nH]1 | inactive: 49.6% |  |
| CCc1ccc(-n2nc(C)c3c(C)cc(=O)n(CC(=O)N4CCCc5ccccc54)c32)cc1 | inconclusive: -3.18% [signal inhibitor] |  |
| CCc1ccc(OCC(=O)N(Cc2ccc(Cl)cc2)C2CCS(=O)(=O)C2)cc1 (centres undefined) | inconclusive: 2.01% [signal inhibitor] |  |
| CCOC(=O)c1oc2c(c1C)-c1nn(Cc3ccc(Cl)cc3)cc1CC2 | inconclusive: -0.97% [signal inhibitor] |  |
| COc1ccccc1-c1ccc2ncnc(N3CCOCC3)c2c1 | inactive: -1.74% [at 11.4 µM, scaled: untreated 0%, proteasome inhibitor 100%] |  |
| CCC(C)NC(=O)Cn1c(=O)cc(-c2ccccc2)c2c(C)nn(C)c21 (centres undefined) | inactive: 1.89% |  |
| Cn1c(NCCO)nc2c1c(=O)n(Cc1ccccc1Cl)c(=O)n2C | inconclusive: 0.747% [signal inhibitor] |  |
| COc1ccc(Cl)cc1NC(=O)NC(C)c1ccncc1 (centres undefined) | inactive: 1.47% |  |
| O=C(CCc1nc(-c2ccccc2F)no1)Nc1ccc(Oc2ccccc2)cc1 | inconclusive: 4.55% [signal inhibitor] |  |
| Cc1cc(NO)nc(-c2ccc(Br)cc2)n1 | inactive: 1.98% |  |
| O=C(Nc1ccc(N2CCCC2=O)cc1)c1cccc(F)c1 | inactive: 3.12% |  |
| CCOC(=O)Cn1c(=O)oc2cc(S(=O)(=O)NCc3ccccn3)ccc21 | inconclusive: 17.1% [signal inhibitor] |  |
| N#C/C(=C\c1ccccc1)c1nc(-c2cc3cc(Br)ccc3oc2=O)cs1 | inconclusive: 5.68% [signal inhibitor] |  |
| CCc1ccc(CNCc2c(C(=O)O)n(Cc3cccc(F)c3)c3cc(OC)ccc23)cc1 | inconclusive: 0.155% [signal inhibitor] |  |
| C=CCN1CCc2c(cc(O)c(O)c2Cl)[C@H](c2ccccc2)C1 | inactive: 3.38% |  |
| Cc1cccc(NC(=O)c2c(NC(=O)C(F)(F)F)sc3c2CCCCC3)c1 | inconclusive: -4.34% [signal inhibitor] |  |
| CCOC(=O)c1cccc(Nc2c3c(nc4ccccc24)CCC3)c1 | inconclusive: -2.1% [signal inhibitor] |  |
| O=C(NCCS(=O)(=O)N1CCN(c2ccccc2)CC1)C(c1ccccc1)c1ccccc1 | inconclusive: -1.11% [signal inhibitor] |  |
| O=C(CSc1nccn1-c1ccc(Cl)cc1)Nc1ccc2c(c1)OCO2 | inconclusive: -0.374% [signal inhibitor] |  |
| COc1ccc(NC(=O)Cn2c(=O)oc3cc(S(=O)(=O)N4CCC(C)CC4)ccc32)c(OC)c1 | inconclusive: 1.53% [signal inhibitor] |  |

| Compound | IkBa stabilization activation | Potency |
| --- | --- | --- |
| CCc1c(C)nc2cc(-c3cc(OC)cc(OC)c3)nn2c1N1CCCC1 | inconclusive: 1.82% [signal inhibitor] |  |
| COc1ccc(OC)c(C(C(=O)NCc2ccco2)N(C(=O)Cn2nnc3ccccc32)C(C)C)c1 (centres undefined) | inactive: 1.1% |  |
| CCCS(=O)(=O)c1c(Nc2ccccc2C)sc(C(=O)c2ccccc2)c1N | inconclusive: 1.3% [signal inhibitor] |  |
| CCCc1cc(C(N)=O)c(NC(=O)c2ccoc2C)s1 | inactive: 0.625% |  |
| Cc1ccc(NS(=O)(=O)c2cc(Br)cc3c2N(C(=O)C2CC2)CC3)cc1C | inconclusive: -0.599% [signal inhibitor] |  |
| CC(C)=CCNc1ncnc2c1c(C#N)cn2[C@H]1O[C@@H](CO)[C@@H](O)[C@@H]1O | inactive: 0.888% [at 11.4 µM, scaled: untreated 0%, proteasome inhibitor 100%] |  |
| CC(C)NCC(O)Cn1c2c(c3ccccc31)CCc1c-2cnn1-c1ccccc1 (centres undefined) | inconclusive: -6.99% [signal inhibitor] |  |
| CCOc1ccccc1CNC(=O)CCn1ccc2cc(S(=O)(=O)N3CCC(C)CC3)ccc21 | inconclusive: 1.84% [signal inhibitor] |  |
| COC(=O)c1ccc(Cn2nnc3sc4c(c3c2=O)CCC(C)C4)cc1 (centres undefined) |  | inconclusive: 20 µM [signal inhibitor] |
| COc1ccc(N2C(=O)CC(Sc3nnc(-c4ccccc4)o3)C2=O)cc1 (centres undefined) | inconclusive: -6.58% [signal inhibitor] |  |
| O=C(c1ccc(Cn2cc(Br)cn2)cc1)N1CCN(c2ccccc2)CC1 | inconclusive: 5.15% [signal inhibitor] |  |
| COc1ccc2c(CNCCc3cccs3)c(C(=O)O)n(Cc3ccccc3)c2c1 | inconclusive: 1.06% [signal inhibitor] |  |
| CCOc1ccc(CCNC(=O)c2cc3c(=O)[nH]c4ccc(C)cc4c3s2)cc1OCC | inconclusive: 3.82% [signal inhibitor] |  |
| COc1ccc(-c2nc3cnc(OC)nc3n(C[C@H]3CCCO3)c2=O)cc1 | inactive: 0.109% [at 11.4 µM, scaled: untreated 0%, proteasome inhibitor 100%] |  |
| CC1CCN(c2nncc3ccccc23)CC1 | inactive: -0.726% |  |
| CCc1ccc2c(c1)NC(c1cccs1)=NC(c1ccc(F)cc1)=N2 | inconclusive: -2.38% [signal inhibitor] |  |
| COc1cc2[nH]c(=O)n(CCCCCC(=O)N3CCN(c4cccc(C(F)(F)F)c4)CC3)c(=O)c2cc1OC | inconclusive: -3.13% [signal inhibitor] |  |
| Cc1c(C(=O)N(C)C)sc2c1c(=O)n(-c1ccc(Cl)c(Cl)c1)c(=O)n2CC(=O)Nc1cccc(C(F)(F)F)c1 | inactive: -0.898% |  |
| COc1cccc(N2CCN(C(=O)c3c(C)oc4ncnc(N5CCOCC5)c34)CC2)c1 | inconclusive: 2.87% [signal inhibitor] |  |
| CCn1c(=O)n(CC)c2cc(N3CCCCC3)c(NC(=O)Nc3ccccc3Cl)cc21 | inconclusive: 1.76% [signal inhibitor] |  |
| CCOC(=O)Cc1ccc(NC(=O)NCc2ccc3c(c2)CCN3C(=O)CC)cc1 | inconclusive: -0.888% [signal inhibitor] |  |
| Cc1cc(C)cc(NC(=O)c2cc(S(=O)(=O)NCc3ccco3)ccc2F)c1 | inconclusive: 5.26% [signal inhibitor] |  |
| Cc1cc(C)c(Cn2c3ccccc3c3cnn(CC(=O)N4CCCCCC4)c(=O)c32)c(C)c1 | inconclusive: 3.73% [signal inhibitor] |  |
